Measurements from ChEMBL document CHEMBL1201862, “PubChem BioAssay data set” (2004).

These compounds were tested on NCI-H322M (assay: NCI-60 cell line screen, 48 h).

| SMILES | GI50 |
| --- | --- |
| CCOC(=O)[C@]1(OC(C)=O)C[C@H](OC(C)=O)[C@@H](C(F)COP(=O)(OCc2ccccc2)OCc2ccccc2)O1 (stereo partly specified) | inactive: > 100 µM and inactive: 81.1 µM |
| Cn1c(=S)sc2nc3ccccc3n2c1=S | inactive: 13.6 µM |
| O=C1C=CC(=O)C2C1Cc1ccccc1C2c1ccccc1 (stereo unspecified) | inactive: > 100 µM |
| CC1=C(C(=O)OCCc2ccc([N+](=O)[O-])cc2)C(c2cccc([N+](=O)[O-])c2)C(C(=O)OC(C)C)=C(C)N1 (stereo unspecified) | inactive: > 100 µM |
| O=Cc1cc(C(=O)OCc2ccccc2)n(S(=O)(=O)c2ccccc2)c1 | inactive: 27.3 µM |
| Oc1nc(S)nc2c1C(c1ccc(Cl)cc1)c1c(O)nc(S)nc1O2 | inactive: > 100 µM |
| CCCCCCCC(=O)NC(C)(C)C(=O)NCC(=O)NC(CC(C)C)C(=O)NC(C)(C)C(=O)NCC(=O)NCC(=O)NC(CC(C)C)C(=O)NC(C)(C)C(=O)NCC(=O)NC(C(=O)NC(CO)CC(C)C)C(C)CC (stereo unspecified) | inactive: 4.18 µM |
| CCOC(=O)NC/C=C/COC1CCCCO1 (stereo unspecified) | inactive: > 100 µM |
| COc1c(-c2ccccc2)nc2ccc(Oc3ccccc3)nn12 | inactive: > 100 µM |
| Cc1nc2cccc(F)c2c(=O)n1-c1nnc(C2CC2)s1 | inactive: > 10 µM |
| CC(C)(C)NCc1cc(Nc2ccnc3cc(Cl)ccc23)cc(-c2ccc(Cl)cc2)c1O | inactive: 3.52 µM |
| CCNC1=C(NC(=O)CCl)C(=O)c2ccccc2C1=O | inactive: 18.8 µM |
| O=c1c(-c2cccc3ccccc23)c(-c2cccc3ccccc23)c1=O | inactive: 5.77 µM |
| CC(C)(C)C1=Cc2cc3cc(C(C)(C)C)[nH]c(=O)c3cc2S(=O)(=O)N1 | inactive: 30.7 µM |
| CN(C)/C=N/c1c2c(nc3ccccc13)CCCC2 | inactive: > 100 µM |
| CCOC(=O)CC1C(C(=O)OCC)=Cn2c([nH]c3cccc4cccc2c43)=C1C(=O)OCC (stereo unspecified) | inactive: > 100 µM |
| Cc1ccc(S(=O)(=O)Nc2cccc(C)c2C)cc1 | inactive: > 100 µM |
| O=C(/C=C/c1ccc(OCc2ccccc2)cc1)NCc1ccc(C(=O)NCc2ccccc2)cc1 | inactive: > 100 µM |
| CNC(=O)Nc1cc2c3c(c1)CCCN3CCC2 | inactive: > 10 µM |
| COc1ccc(C2Cc3cc(OC)c(OC)c(OC)c3C2=O)cc1 (stereo unspecified) | inactive: 94.4 µM |
| COC(OC)C(C)CC(=O)N(C)C (stereo unspecified) | inactive: > 100 µM |
| O=C(CSc1nc(-c2ccccc2)c(-c2ccccc2)[nH]1)N/N=C/c1ccc(O)cc1 | inactive: 28.6 µM |
| O=[N+]([O-])c1cc(Cl)ccc1S(=O)(=O)N1CCCc2cc(Cl)ccc21 | inactive: 43.4 µM |

| SMILES | GI50 |
| --- | --- |
| CCOC(=O)c1nc2ccccc2nc1Oc1ccc(C#N)cc1 | inactive: > 100 µM |
| COC(=O)C(NC(=O)C(CC(=O)OC(C)(C)C)NC(=O)OC(C)(C)C)C(O)c1ccccc1 (stereo unspecified) | inactive: 34 µM |
| N#Cc1c(O)nc2[nH]nc(/N=N\c3c(O)ccc4ccccc34)c2c1-c1ccc(Cl)cc1 | active: 0.321 µM |
| COC(=O)C(CC(=O)Nc1ccc(C)cc1)C(=O)C(=O)Nc1ccccc1C(C)C (stereo unspecified) | inactive: > 100 µM |
| CC(=O)Oc1ccc2c(c1)c1c(=O)oc(N(C)C)nc1n2Cc1ccccc1 | inactive: > 100 µM |
| CCCCCCCCCCCCCC(=O)OC1C(O)C(CO)OC(OC)C1NC(=O)N(CCCl)N=O (stereo unspecified) | inactive: > 100 µM |
| CC1=C(C(=O)OC(C)C)C(c2ccccc2[N+](=O)[O-])C(C(=O)OC(CO[N+](=O)[O-])CO[N+](=O)[O-])=C(C)N1 (stereo unspecified) | inactive: 7.03 µM |
| CCC(=O)OCN(C)c1nc(N(C)COC(=O)CC)nc(N(C)COC(=O)CC)n1 | inactive: > 100 µM |
| COc1cc(C2c3cc4c(cc3OC(N3CCOCC3)C2C)OCO4)cc(OC)c1O (stereo unspecified) | inactive: 24 µM |
| [O-][S+]1c2ccccc2N=C(c2ccc(Cl)cc2)CC1c1cccs1 (stereo unspecified) | inactive: 29.7 µM |
| COC(=O)C1=C(N)C2=C(N)Oc3ccccc3C2CC1=C(C#N)C#N (stereo unspecified) | inactive: 22.5 µM |
| CC1=NCCc2c1[nH]c1cc(O)ccc21 [HARMALOL HYDROCHLORIDE] | inactive: > 100 µM |
| c1ccc2sc(C3(N4CCCCC4)CCCCCC3)cc2c1 | inactive: 21.2 µM |
| CN(C(=O)c1cccs1)C(=S)N1CCN(c2ccccn2)CC1 | inactive: > 100 µM |
| O=c1c2ccccc2nnn1-c1n[nH]c2ccccc12 | inactive: > 100 µM |
| CC(C)(C)C(=O)CP(=O)(O)O | inactive: > 100 µM |
| COc1ccccc1N1C(=O)/C(=C\c2cccc(Oc3ccccc3)c2)S(=O)(=O)C1c1ccccc1 (stereo unspecified) | inactive: > 100 µM |
| Cn1c(=O)c2nc3sc4ccccc4c(=N)n3c2n(C)c1=O | inactive: > 100 µM |
| COC(=O)C1=C(O)C(C(=O)OC)[C@@]2(O)[C@@H](C(=O)OC)[C@H](C)C[C@@H]1[C@@H]2C(=O)OC (stereo partly specified) | inactive: 28.2 µM |
| COC(=O)c1c2c(c(-c3ccccc3)c3c1-c1nc(Cl)ccc1CC3)CCc1ccc(Cl)nc1-2 | inactive: > 100 µM |
| OC(C#CCN1CCCC1)(c1ccccc1)c1ccccc1Cl (stereo unspecified) | inactive: 36.5 µM |
| CC(=O)Nc1ccc(/C=C/C(=O)c2sc(-c3nc(C)c(C(=O)/C=C/c4ccc(NC(C)=O)cc4)s3)nc2C)cc1 | inactive: > 100 µM |
| N#CC(C#N)=C(N)/C(C#N)=C\c1ccnc2ccccc12 | inactive: 71 µM |

| SMILES | GI50 |
| --- | --- |
| O=C(c1ccccc1)c1c(-c2ccccc2)sc2nc3ccccc3nc12 | inactive: > 100 µM |
| Cc1cc2nc(-c3cc(C(C)(C)C)c(O)c(C(C)(C)C)c3)[nH]c2cc1C | inactive: > 28.8 µM |
| Cc1cc(O)cc(O)c1C(=O)O[C@]1(C)C(=O)C=C2C=C(/C=C/C(=O)O)OC=C2C1=O | inactive: 76.9 µM |
| FC(F)(F)c1cc(N(C2c3ccccc3C=Cc3ccccc32)P(Cl)Cl)cc(C(F)(F)F)c1 | inactive: 22.6 µM |
| c1ccc(-c2cc(-c3ccncc3)cc(-c3ccncc3)n2)cc1 | inactive: > 100 µM |
| CCCCCCCC(=O)NCC(O)CNC(=O)CCCCCCC | inactive: > 100 µM |
| Nc1cc(C(=O)O)nc(O)n1 | inactive: > 100 µM |
| C=C1CCC2CC1[C@@H](C(=O)c1c[nH]c3ccccc13)NC2(C)C (stereo partly specified) | inactive: > 37.5 µM |
| COC(=O)C(=Cc1cc(OC)ccc1OC)C(=O)OC | inactive: 29.2 µM |
| Cc1cc(Cc2cc(Cc3cc(C)cc(C(C)(C)C)c3O)c(C)cc2C)c(O)c(C(C)(C)C)c1 | inactive: 15.5 µM |
| O=c1c2ccccc2nc(-c2cccc(Cl)c2)n1NCC1(O)OCC(O)C(O)C1O (stereo unspecified) | inactive: > 100 µM |
| CN(C)c1ncnc2c1ncn2C1C=CC(COS(N)(=O)=O)C1 (stereo unspecified) | inactive: > 100 µM |
| CCNC(C)Cc1ccccc1 (stereo unspecified) | inactive: > 100 µM |
| COc1ccc(Cc2c(N)[nH]c(=O)n(C)c2=O)cc1 | inactive: > 100 µM |
| CC1=NN(C(=O)CC(=O)Nc2ccccc2F)C(=O)C1/N=N/c1ccccc1[N+](=O)[O-] (stereo unspecified) | inactive: > 100 µM |
| OC(c1ccccc1)C(F)(F)c1nc2ccccc2o1 (stereo unspecified) | inactive: > 100 µM |
| N#Cc1ccc(-c2nc(C#N)c(N)o2)cc1 | inactive: > 10 µM |
| CCOC(=O)N1CCN(c2ccc3ccc(N)nc3n2)CC1 | inactive: > 100 µM |
| O=C(N/N=C/c1cccc(O)c1O)N/N=C/c1cccc(O)c1O | inactive: 19.3 µM |
| CN(C)CCNC(=O)c1cccc2[nH]c(-c3ccccn3)nc12 | inactive: 30.3 µM |
| CC(=O)OCC1OC(N2C(c3ccccc3)=CC(c3cccs3)C(C#N)=C2S)C(OC(C)=O)C(OC(C)=O)C1OC(C)=O (stereo unspecified) | inactive: > 100 µM |
| Cc1cc(C)c(S(=O)(=O)N2CCN(S(=O)(=O)c3c(C)cc(C)cc3C)OCCCCCO2)c(C)c1 | inactive: > 100 µM |
| COc1ccc(N2C(=O)C3c4[nH]c5ccccc5c4C4CCC(C(C)C)CC4C3C2=O)cc1 (stereo unspecified) | inactive: > 100 µM |

| SMILES | GI50 |
| --- | --- |
| COC(=O)CC(c1cn(S(=O)(=O)c2ccc(C)cc2)c2ccccc12)C1C[C@@H](C(=O)OC)N(C(=O)OC(C)(C)C)C1=O (stereo partly specified) | inactive: 65.9 µM |
| Nc1nc(Cl)cc(NCC2(CO)CCC(OCc3ccccc3)C2)n1 (stereo unspecified) | inactive: 12.2 µM |
| CC(=O)c1nc(C#N)c(N)o1 | inactive: > 100 µM |
| Oc1ccccc1C(c1cc2c(cc1O)OCO2)N1CCOCC1 (stereo unspecified) | inactive: 42.6 µM |
| O=C(O)c1cc2ccccc2c(Cc2c(O)c(C(=O)O)cc3ccccc23)c1O [PAMOIC ACID] | inactive: > 100 µM |
| CN(Cc1cc(Cl)cc(Cl)c1)CC(C(=O)c1ccccc1)c1ccccc1 (stereo unspecified) | inactive: 17.7 µM |
| Cn1c(=O)c2sc3c4sc5c(=O)n(C)c6ccccc6c5c4sc3c2c2ccccc21 | inactive: > 100 µM |
| Clc1ccccc1C(c1ccccc1)(c1ccccc1)n1ccnc1 [CLOTRIMAZOLE] | inactive: 16.1 µM |
| O=c1c(C(c2ccc([N+](=O)[O-])cc2)c2c(O)oc3ccccc3c2=O)c(O)oc2ccccc12 | inactive: > 100 µM |
| FC(F)(F)c1cccc(-c2nc3ccccc3c3c2[C@@]2(N4CCCC4)CCCC[C@@H]32)c1 | inactive: 50.2 µM |
| Cc1n(CC(=O)c2ccc([N+](=O)[O-])cc2)c2c([n+]1CC(C)C)C(=O)c1ccccc1C2=O | active: < 0.01 µM |
| Cc1ccc(/C=c2\c(=O)[nH]c3nc4ccccc4c(=O)n23)cc1 | inactive: 49.1 µM |
| Cc1ccc(S(=O)(=O)NC(=O)N[C@@H](Cc2c[nH]cn2)C(=O)O)cc1 | inactive: > 100 µM |
| CCOC(=O)Nc1cc2c(c(N)n1)N=C(c1ccc(OC)cc1)CN2 | active: 0.117 µM |
| C/C(=N\N(c1ccccc1)c1ccccc1)c1c(O)cc(C)oc1=O | inactive: > 100 µM |
| CC(=O)OC1C(CCl)OC(N=[N+]=[N-])C(OC(C)=O)C1OC(C)=O (stereo unspecified) | inactive: > 100 µM |
| CC(C)NC(=O)OCc1c(COC(=O)NC(C)C)c(-c2ccc(Cl)c(Cl)c2)n2c1CCC2 | inactive: 51.5 µM |
| COc1cc(C2C(C(=O)Nc3ccccc3)=C(C)NC(C)=C2C(=O)Nc2ccccc2)ccc1O | inactive: 55.3 µM |
| Cn1cncc1CC1COC(=O)C1C(O)c1ccccc1 (stereo unspecified) | inactive: > 100 µM |
| Oc1ccc(C2Oc3cc(O)cc4c3C2c2cc(O)cc3c2C(c2cc(O)cc5c2C4C(c2ccc(O)cc2)O5)C(c2ccc(O)cc2)O3)cc1 (stereo unspecified) | inactive: 9.51 µM |
| Cc1ccc(CCCC(=O)O)cc1C | inactive: > 100 µM |
| COn1oc(=O)c2ccccc21 | inactive: > 100 µM |

Values joined by “and” are separate entries in the source; they are usually repeats but may differ in a detail not shown here. Equal values may be shown once. Where a name gives a salt, the structure may show the parent alone.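 Each compound was tested at five concentrations against cells in 96-well plates for 48 hours. GI50 = concentration required for 50% inhibition of growth.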 Active and inactive are the calls of the source. Cut-off read from the data, not from the text of the source: active = GI50 up to about 1.1 µM and inactive = higher.
